Among all 45,000 compounds or so, about 200 (0.44%) were called active. Another 7% or so got no clear call; they are omitted. Calls follow the shape of the dose curve; as a rule, active = well fitted activation curve with a large enough effect; inconclusive = small, poorly fitted or top-dose-only effect; inactive = no such curve, though single readings can be large or run the other way. Some of the results follow.
assay: qHTS of TDP-43 Inhibitors: NCGC Sytravon Library Screen; details: yeast TDP-43 toxicity rescue, BacTiter-Glo growth, 24 h; series mostly up to 46.1 µM; growth rescue (activation): at the top concentration; also: 0% is about no effect; nearly all actives have a fitted effect of over 55% in size
Procedure, shortened: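 TDP-43-expressing yeast, pregrown in raffinose, seeded at OD600 0.02 in galactose medium with compound for 24 hr at 30 deg C. Growth read by BacTiter-Glo luminescence, so rescue of toxicity appears as activation.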

| SMILES | growth rescue (activation) |
| --- | --- |
| Cc1ccc2cc(C)c(SCC(=O)NCC3CCCO3)nc2c1 (configuration not stated) | inactive: 11% |
| COc1ccc(N(CC(=O)Nc2ccccc2C(N)=O)S(=O)(=O)c2ccc(C)c([N+](=O)[O-])c2)cc1 | inactive: 1.95% |
| COc1ccc(CNc2ncnc3ccccc23)cc1 | inactive: -6.94% |
| COCCOc1cc(NC(=O)CS(=O)CC(=O)N(C)C)c(Cl)cc1Cl (configuration not stated) | inactive: -4.04% |
| CCc1ccccc1NC(=S)N1CCC(NC(=O)c2ccc(OC)cc2)CC1 | inactive: 0.874% |
| COc1ccc2nc(N=Nc3ccc(O)c4ccccc34)sc2c1 | inactive: -9.56% |
| Cc1oc2nc(SCC(=O)NCc3cccnc3)nc(N)c2c1C | inactive: -3.07% |
| O=C(CCSc1nnc(-c2ccc(O)cc2)o1)N1CCOCC1 | inactive: 13% |
| CCOc1ccc(/C=N/NC(=O)CC(=O)NCc2ccccc2)cc1 | inactive: -15.7% |
| CCCC(=O)Nc1ccc(Cc2ccc(NC(=O)CCC)c(C(=O)O)c2)cc1C(=O)O | inactive: -1.23% |
| Cc1cnc(NC(=O)CSCc2c(C)noc2C)s1 | inactive: 13% |
| Cc1ccccc1-n1c(-c2ccc(=O)[nH]n2)n[nH]c1=S | inactive: 15.4% |
| CCCN1C(=O)SC(CC(=O)Nc2ccc(C)cc2)C1=O (configuration not stated) | inactive: 2.46% |
| O=C(NNC(=S)NC(=O)c1ccccc1[N+](=O)[O-])c1ccccc1O | inactive: -27.6% |
| CCCC(O)(c1ccc(OC)cc1)C(CN1CCOCC1)c1ccccc1 (configuration not stated) | inactive: 1.98% |
| Oc1ccc(C2=NN(c3ccccc3)C(c3ccc(F)cc3)C2)cc1 (configuration not stated) | inactive: -90.7% |
| COc1cc(C(C)=O)ccc1COc1ccc(C(=O)OCC(=O)NC(C)(C)C)cc1OC | inactive: 5.22% |
| CCCOc1ccc(C(=O)N(Cc2ccc(Cl)cc2)Cc2ccco2)cc1 | inactive: 28.2% |
| O=C(Nc1cccc(F)c1)C1CCN(S(=O)(=O)c2cccc3nonc23)CC1 | inactive: 12.4% |
| COc1cc(NC(=S)Nc2ccc(Br)cc2Cl)c(OC)cc1Cl | inactive: 21.5% |
| Cc1ccc(-c2c(C(=O)NC(C)C)oc(=O)c3ccccc23)cc1 | inactive: 4.92% |
| CSc1ccccc1NC(=O)c1ccccc1 | inactive: 12.5% |
| CCN(c1ccccc1)S(=O)(=O)c1ccc(C(=O)N2CCN(c3ccccc3)CC2)cc1 | inactive: 26.7% |
| NC(=O)CC1C(=O)N(c2ccccc2)C(=S)N1NC(=O)c1ccc(Br)cc1 (configuration not stated) | inactive: -5.53% |
| O=C(C1CCCO1)N1CCN(C(=S)Nc2ccccc2F)CC1 (configuration not stated) | inactive: 4.62% |
| COc1ccc(N(C(=O)CSCC(=O)Nc2cc(C)on2)C(C(=O)NC2CCCCC2)c2ccc(O)c(O)c2)cc1 (configuration not stated) | inactive: -12.7% |

| SMILES | growth rescue (activation) |
| --- | --- |
| O=C(COC(=O)COc1cccc(F)c1)NCCC1=CCCCC1 | inactive: 3.76% |
| CC(C)(C)n1nc2c(c1NC(=O)c1ccco1)CS(=O)C2 (configuration not stated) | inactive: 21.2% |
| CCn1c2ccccc2c2cc(NC(=O)COC(=O)c3cc(S(N)(=O)=O)c(Cl)cc3Cl)ccc21 | inactive: 28.2% |
| CCCCNC(=S)Nc1ccc([N+](=O)[O-])cc1 | inactive: 27.1% |
| COc1ccc([N+](=O)[O-])cc1N(CC(=O)NCC1CCCO1)S(C)(=O)=O (configuration not stated) | inactive: 8.71% |
| CCN(CCCNC(=O)CNC(=O)c1nn(-c2ccc(OC)c(OC)c2)c(=O)c2ccccc12)c1ccccc1 | inactive: 2.61% |
| COc1ccc(Cn2c3ccc(OC)cc3c3nc4ccccc4nc32)cc1 | inactive: 7.29% |
| CCOc1cc(N2CCOCC2)c(OCC)cc1NC(=O)C(C)(C)C | inactive: 7.44% |
| COc1ccc(NC(=O)C(=O)NNC(=O)C(C)Oc2ccc(Cl)cc2Cl)cc1 (configuration not stated) | inactive: -8.83% |
| Cc1ccc(C)c(N(CC(=O)Nc2ccccc2C(=O)NCc2ccco2)S(=O)(=O)c2ccccc2)c1 | inactive: 7.93% |
| CC(C)c1ccc(N(CC(=O)NCc2ccc(F)cc2)C(=O)c2snc(C(N)=O)c2N)cc1 | inactive: -4.22% |
| O=C(Cn1cnc2ccccc2c1=O)c1ccc(OC(F)F)cc1 | inactive: -32.8% |
| CCCNC(=O)c1ccccc1NC(=O)CN(c1ccccc1)S(=O)(=O)N(C)C | inactive: -4.42% |
| CCCNC(=O)C1(C)CCCN(Cc2cccc(C(F)(F)F)c2)C1 (configuration not stated) | inactive: -6.75% |
| COc1ccccc1C(=O)Nc1ccc(N2CCN(Cc3ccccc3)CC2)cc1 | inactive: -2.89% |
| Cc1ccc(-n2nc3c(c2NC(=O)c2ccc4c(c2)OCO4)CS(=O)C3)cc1 (configuration not stated) | inactive: 28.2% |
| Cc1cccc(NS(=O)(=O)c2ccc3c(c2)NC(=O)CC(=O)N3)c1 | inactive: 2.63% |
| COc1ccc(C2C3=C(CC(C)(C)CC3=O)N(C)C3=C2C(=O)CC(C)(C)C3)cc1 | inactive: -4.4% |
| COc1ccc([N+](=O)[O-])cc1NC(=O)CCSCCc1ccccn1 | inactive: 7.93% |
| CC1CCC(=NNc2ccc(C(F)(F)F)cc2[N+](=O)[O-])CC1 (configuration not stated) | inactive: -3.75% |
| O=C(OCc1cncs1)c1ccccc1 | inactive: -1.39% |
| CC(=O)N1CCN(CC(=O)Nc2cccc(S(=O)(=O)N3CCCCCC3)c2)CC1 | inactive: -5.1% |
| Cc1ccc(NC(=O)CN(C)C(=O)c2ccc(Cl)c([N+](=O)[O-])c2)cc1 | inactive: -25.3% |
| CN(C1CCS(=O)(=O)C1)S(=O)(=O)c1ccccc1[N+](=O)[O-] (configuration not stated) | inactive: -0.993% |
| CCOC(=O)N(C)c1c(CC)nc2c(OCc3cc(Cl)cc(Cl)c3)cccn12 | inactive: 6.49% |
| Cc1c(Cl)cccc1N(Cc1ccc(C(=O)O)cc1)S(=O)(=O)c1ccccc1 | inactive: 11.4% |
